# Data from publication PMC4336329 (PLoS ONE, 2015).
# Hit rate of the full screen: of about 310,000 compounds, about 14,000 (4.5%) showed an effect of 50% or more. The effect is printed as a negative number. The list shows a part of the results.
# Target: human ether-à-go-go-related gene (hERG) potassium channel (human, UniProt Q12809)
# Test: primary screen, population patch clamp on CHO cells stably expressing hERG
# 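Further: peak tail current of the secondary pulse compared with the same well before compound.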
# Sequence of human ether-à-go-go-related gene (hERG) potassium channel (Q12809 whole entry, looked up): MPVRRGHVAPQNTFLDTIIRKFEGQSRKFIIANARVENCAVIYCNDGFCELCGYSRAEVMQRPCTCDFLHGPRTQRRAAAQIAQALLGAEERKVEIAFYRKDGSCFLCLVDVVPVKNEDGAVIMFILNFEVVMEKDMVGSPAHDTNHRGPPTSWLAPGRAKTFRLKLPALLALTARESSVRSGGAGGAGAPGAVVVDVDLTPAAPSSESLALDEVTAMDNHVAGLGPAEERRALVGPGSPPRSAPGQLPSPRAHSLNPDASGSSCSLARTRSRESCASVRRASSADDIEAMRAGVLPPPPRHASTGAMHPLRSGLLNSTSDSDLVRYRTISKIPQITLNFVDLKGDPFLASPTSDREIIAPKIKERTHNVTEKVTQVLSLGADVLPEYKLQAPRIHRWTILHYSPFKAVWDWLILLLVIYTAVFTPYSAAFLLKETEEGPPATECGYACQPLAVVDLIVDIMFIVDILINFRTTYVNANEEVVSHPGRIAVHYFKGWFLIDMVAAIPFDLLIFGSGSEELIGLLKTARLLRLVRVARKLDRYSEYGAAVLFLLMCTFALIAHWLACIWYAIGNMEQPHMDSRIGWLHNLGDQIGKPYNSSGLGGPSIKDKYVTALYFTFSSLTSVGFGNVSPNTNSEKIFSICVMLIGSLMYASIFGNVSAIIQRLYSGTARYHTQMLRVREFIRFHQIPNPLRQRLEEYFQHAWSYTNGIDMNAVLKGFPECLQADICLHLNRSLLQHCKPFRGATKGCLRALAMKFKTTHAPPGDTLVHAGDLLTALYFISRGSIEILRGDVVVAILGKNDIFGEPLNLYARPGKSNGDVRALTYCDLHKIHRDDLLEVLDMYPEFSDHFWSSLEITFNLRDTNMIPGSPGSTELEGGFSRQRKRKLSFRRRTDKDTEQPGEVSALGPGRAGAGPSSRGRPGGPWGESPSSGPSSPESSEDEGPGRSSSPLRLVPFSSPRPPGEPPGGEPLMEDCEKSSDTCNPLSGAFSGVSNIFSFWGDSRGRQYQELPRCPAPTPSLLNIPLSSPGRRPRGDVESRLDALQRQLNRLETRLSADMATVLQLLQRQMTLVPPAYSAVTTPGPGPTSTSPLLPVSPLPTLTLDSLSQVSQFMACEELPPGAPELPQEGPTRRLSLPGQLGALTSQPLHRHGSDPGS
row,SMILES,"hERG current change (%, negative = inhibition) at 10uM [%]"
1,Cc1cc(C(C)(C)C)oc1C(=O)OCC(=O)NC1CCCCC1,0.649
2,CCCCOC(=O)c1ccc(NC(=O)COC(=O)CN2C(=O)NC3(CCCC3)C2=O)cc1,3.35
3,O=C(COc1ccccc1)N1CCN(C(=O)c2cccc(F)c2)CC1,-7.92
4,O=C(CN1C(=O)c2cccc3cccc1c23)NCc1ccncc1,-4.02
5,CC(C)C(C(=O)NCC1CCCO1)N(Cc1cccs1)C(=O)CNS(=O)(=O)c1ccccc1 (stereo not drawn),-28.7
6,COc1ccccc1OCc1ccc(C(=O)Nc2ccncc2)o1,-38
7,CC(C)n1cnnc1SCC(=O)NNC(=O)COc1ccc(Cl)cc1,19.2
8,COc1ccccc1NC1CCCCC1NS(=O)(=O)c1ccccc1 (stereo not drawn),15.2
9,CCC(c1nnnn1C(C)(C)CC)N(CCCO)Cc1cc2cccc(C)c2[nH]c1=O (stereo not drawn),-18.7
10,O=[N+]([O-])c1ccc(N2CCNCC2)cc1NC1CC1,-13.6
11,Cc1c(C#N)c(N)nc2c3c(sc12)NC(=O)CC3c1ccccc1 (stereo not drawn),12.6
12,Cc1ccccc1Cn1c(O)c(N=NC(=S)Nc2ccccc2F)c2ccccc21,19.6
13,CCN=c1scc(-c2ccco2)n1/N=C/c1ccc(O)cc1,2.74
14,COc1ccc(Nc2nc3ccccc3c(=O)s2)c(OC)c1,17.3
15,C=CCn1c(SCc2c(C)noc2C)nc2sc3c(c2c1=O)CCCCC3,0.151
16,Cc1ccc(N2C(=O)NC(=O)C(CCc3ccncc3)(Cc3cccc(Cl)c3Cl)C2=O)cc1 (stereo not drawn),6.14
17,CCOC(=O)c1[nH]c(C)c(CN(C(C)=O)c2ccc(OCC)cc2)c1C,-4.86
18,Cc1ccc2c(c1)cc(CN(CCc1ccccc1)C(=O)N1CCOCC1)c1nnnn12,-61.3
19,Cl.NC(N)=NC(=O)Cc1c(Cl)cccc1Cl,13.9
20,CCn1c2ccccc2c2cc(NC(=O)COc3ccc(OC)cc3)ccc21,4.94
21,O=[N+]([O-])c1ccc(COc2ccccc2/C=N/O)cc1,-4.22

row,SMILES,"hERG current change (%, negative = inhibition) at 10uM [%]"
1,COc1ccc(NC(=O)Cn2ncc(Cl)c(Cl)c2=O)cc1S(=O)(=O)N1CCOCC1,0.26
2,CN(C)CCN=Cc1c(O)n(Cc2ccco2)c(=O)[nH]c1=O,11.2
3,COc1ccc(OC)c(C2=Nn3c(nnc3-c3ccncc3)SC2)c1,-24.3
4,NS(=O)(=O)c1cc(C(=O)NC2CCSc3ccccc32)ccc1Cl (stereo not drawn),7.27
5,CCOc1ccccc1N/C=C/C(=O)C(C)(C)C,-7.16
6,Cc1ccccc1OCCNC(=O)/C=C/c1ccc([N+](=O)[O-])cc1,-32.3
7,O=c1cc(CO)oc(C(Nc2ccccn2)c2ccc(F)cc2)c1O (stereo not drawn),9.87
8,CCS(=O)(=O)Nc1cccc(C2=NN(S(=O)(=O)c3ccccc3)C(c3ccco3)C2)c1 (stereo not drawn),-3.79
9,COc1cccc(-c2cc(C(F)(F)F)nc(N3CCC(C)CC3)n2)c1,6.69
10,CC(C)CCC[C@@H](C)[C@H]1CC[C@H]2[C@@H]3C(=O)C=C4C[C@@H](O)CC[C@]4(C)[C@H]3CC[C@]12C,12.5
11,COc1ccc(N2C(=O)CCC(C(=O)O)C2c2ccc(OC)c(OC)c2)cc1 (stereo not drawn),2.55
12,COc1cccc(OCC(O)CN2CCN(c3ccc(Cl)cc3)CC2)c1 (stereo not drawn),-71.9
13,CC(=O)c1cc(CN2CCN(CCc3ccccc3)C(CCO)C2)cs1 (stereo not drawn),-54.4
14,O=C(O)c1ccccc1NSc1ccccc1[N+](=O)[O-],7.35
15,COc1ccc(/C=N/Nc2nonc2N)cc1,-12.3
16,Cc1ccc(/C=C2/NC(=O)N(Cc3ccccc3)C2=O)o1,-3.16
17,COc1ccc(CCNC(=O)CSc2nc(=O)n3cccc(C)c3n2)cc1OC,15.8
18,COc1ccc2[nH]c(C(=O)N3CCC(CO)(Cc4cccc(C(F)(F)F)c4)CC3)c(C)c2c1,7.98
19,O=C(O)C12C[C@H]3C[C@@H](C1)CC(n1ncc(N4CCN(c5ccccc5)CC4)c(Cl)c1=O)(C3)C2,9.94
20,Cc1ccc(C(=O)N2CC(=O)Nc3ccccc32)o1,6.06
21,CCOC(=O)c1ccc(NC(=O)COC(=O)c2cccc(Oc3ccccc3)c2)cc1,4.33
